Laboratory results taken from PubChem BioAssay AID686979 (National Center for Advancing Translational Sciences (NCATS), 2013).
In all, about 420,000 compounds went through this assay and about 50,000 (12%) were called active. The shares of active, inactive and inconclusive entries below differ from those in the screen. The call rests on the fitted dose curve; in most records, active means well fitted inhibition curve with a large enough effect; inconclusive means small, poorly fitted or top-dose-only effect; inactive means flat fitted curve, though single readings scatter. Potencies of inconclusive entries are left out as doubtful fits.
On the % scale 0 is the no-effect control and ±100 the full control effect; potency means the concentration at half of the fitted maximal effect; tags describe the fitted curve by direction and shape.

Experiment: qHTS for Inhibitors of human tyrosyl-DNA phosphodiesterase 1 (TDP1): qHTS in cells in presence of CPT; further: nearly all actives have a fitted effect of over 55% in size
Conditions: chicken DT40 Tdp1-/-;hTDP1 cells + 20 nM CPT, ATP luminescence, 48 h; activity change, negative = growth inhibition: at 46.2 µM (top of the series) unless noted
How it was run: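 Cell growth measured by CellTiter-Glo luminescence after a minimum 48 h, 37 C compound exposure with 20 nM CPT in Tdp1-knockout DT40 cells stably expressing hTDP1, seeded 400/well; qHTS titration format.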
In the case of `COC(=O)c1ccccc1NC(=O)NCCc1c(C)nn(C)c1C`, the Potency is reported as inconclusive [inhibitor, single point]. With `CC(C)(C)c1ccccc1NC(=O)Cn1c(=O)cnc2ccccc21` the “activity change, negative = growth inhibition” value was inactive: 8.75%. With `Cc1cccc(N(C)C(=O)c2cc(S(=O)(=O)N3CCCC3)cn2C)c1` the Potency was “inactive”. In the case of `Cc1cc(C)nc(Nc2n[nH]c(COc3ccccc3)n2)n1`, the Potency is reported as inconclusive [inhibitor, single point]. With `CCOC(=O)Cn1c(=O)oc2cc(S(=O)(=O)NCc3ccccn3)ccc21` the “activity change, negative = growth inhibition” value was inactive: 3.14%. For `COc1ccc(/C=N/n2c(-c3ccco3)nc3ccccc3c2=O)cc1`, the Potency was inconclusive [inhibitor, single point]. With `O=C(c1ccco1)N1CCN(c2nc3ccsc3c(=O)s2)CC1` the Potency was inconclusive [inhibitor, single point]. With `O=C(O)c1ccc(N/N=C/C=C/c2ccc([N+](=O)[O-])o2)cc1` the Potency was active: 8.2 µM. With `O=C(NCCS(=O)(=O)N1CCN(c2ccccc2)CC1)C(c1ccccc1)c1ccccc1` the Potency was inconclusive [inhibitor, single point]. For `O=C1CC(c2ccccc2)Cc2[nH]c(=O)c(C(=O)Nc3cccc(F)c3)cc21` (stereo not given), the Potency was inconclusive [inhibitor, single point]. With `CCOC(=O)c1cccc(Nc2c3c(nc4ccccc24)CCC3)c1` the Potency was inconclusive [inhibitor, single point]. In the case of `COc1ccc(C)cc1Nc1n[n+](-c2ccccc2)c(-c2ccc(SC)cc2)s1`, the Potency is reported as active: 18.4 µM. In the case of `O=C(Nc1ccccc1Br)C1CCCN(S(=O)(=O)c2cccc3nsnc23)C1` (stereo not given), the Potency is reported as inconclusive [inhibitor, single point]. For `Cn1ccnc1SC(=O)N1c2ccccc2Sc2ccccc21`, the Potency was inconclusive [inhibitor, single point]. In the case of `COc1cc(OC)cc(-n2nnnc2SCC(=O)N2CCCC2)c1`, the “activity change, negative = growth inhibition” value is reported as inactive: -4.07%. With `COc1cccc(N2CCN(S(=O)(=O)c3ccc4[nH]c5c(c4c3)CCCC5)CC2)c1` the Potency was inconclusive [inhibitor, single point]. In the case of `NC(=O)c1ccc[n+](CC(=O)c2ccc(F)cc2)c1`, the “activity change, negative = growth inhibition” value is reported as inactive: 14.5%. For `COC(=O)C1CCN(CC(=O)Nc2ccc(C(=O)Nc3ccccc3OC)cc2)CC1`, the Potency was inconclusive [inhibitor, single point]. For `Cc1cc(F)ccc1S(=O)(=O)N1CCCOC1CNC(=O)C(=O)NCc1ccc2c(c1)OCO2` (stereo not given), the “activity change, negative = growth inhibition” value was inactive: -20.8%. With `CCc1ccc(OCC(=O)N(Cc2ccc(Cl)cc2)C2CCS(=O)(=O)C2)cc1` (stereo not given) the Potency was inconclusive [inhibitor, single point].
